“And” between values parts separate entries of the source, which are not always exact repeats. Equal entries are not always repeated. Screen size: about 340,000 compounds; about 12,000 (3.5%) were called active. This list was built around the results that the source calls inconclusive (neither active nor inactive); the mix of calls is not that of the screen. The call rests on the fitted dose curve; in most records, active means well fitted inhibition curve with a large enough effect; inconclusive means small, poorly fitted or top-dose-only effect, or another doubt; inactive means no such curve, though single readings can be large or run the other way. Potencies of inconclusive entries are left out as doubtful fits.
Assay: qHTS Assay for Inhibitors of Hepatitis C Virus (HCV)
Conditions: Huh7.5.1 HCVcc-Cre (HCVcc is cell-culture hepatitis C virus) infection, luciferase reporter, 44 h; activity change, negative = inhibition: at 41.8 µM (top of the series) unless noted
How it was run: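 Luciferase read-out (15 sec integration) after a 15 min room-temperature substrate step quantifies HCVcc-Cre infection. Cells, 1,000 per well, had compound added 4 h post-plating, then virus at ~0.5 moi, and were cultured 44 h.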
On the % scale 0 is the no-effect control and ±100 the full control effect; potency means the concentration at half of the fitted maximal effect; tags describe the fitted curve by direction and shape.

| SMILES | Potency | activity change, negative = inhibition |
| --- | --- | --- |
| C/C(=N\NC(=S)Nc1cccc(C)c1)c1ccccc1 | inconclusive [inhibitor, partial curve] |  |
| CC1(CC(=O)N/N=C/c2cc([N+](=O)[O-])c(O)cc2O)OCCO1 | inactive |  |
| CC(C)N1CCC2(CC1)Oc1ccc(Br)cc1C1CC(c3cccnc3)=NN12 (stereo not drawn) | inactive |  |
| O=C(C[C@H]1C/C=C\CC[C@H](Cc2ccc(F)cc2)C(=O)OCCNC1=O)NCCO | inactive |  |
| Cc1ccc(S(=O)(=O)NCCC(=O)N2CCN(c3ccccc3)CC2)cc1C | inconclusive [inhibitor, full curve, poor fit] |  |
| CCCCOc1ccc(C(=O)NCCOc2cccc(OC)c2)cc1 | inactive |  |
| CCNc1nc(NC(C)C)nc(N(C#N)CCOc2ccc(Cl)cc2Cl)n1 | active: 12.6 µM and active: 5.01 µM |  |
| Cc1nc(N2CCN(Cc3ccccc3)CC2)nc2c1C(=O)CC(c1ccco1)C2 (stereo not drawn) | inconclusive [inhibitor, single point] |  |
| COc1ccc(C(=O)N/C(=C\c2ccc(SC)cc2)C(=O)NCCCn2ccnc2)cc1OC | inactive |  |
| COc1ccc(NC(=O)N2CCN(C(=O)Nc3ccc(OC)cc3)CC2)cc1 | inactive |  |
| O=[N+]([O-])c1ccc(N/N=C\c2cccn2-c2ccccc2)nc1 | inconclusive [inhibitor, full curve] |  |
| CCN(CC)Cc1c(O)ccc2cc(-c3nc4ccccc4n3C)c(=O)oc12 | inactive |  |
| O=C1CN(C(=O)COc2ccc(Cl)cc2Cl)c2ccccc2N1 | inconclusive [inhibitor, single point] |  |
| O=C(COC(=O)c1ccc(O)cc1O)NC(=O)NCc1ccccc1 | inconclusive [inhibitor, single point] |  |
| CCOC(=O)C(C)Sc1nnc(Cc2cc(=O)[nH]c(=O)[nH]2)n1-c1ccc(OCC)cc1 (stereo not drawn) | inactive |  |
| O=C(c1nc[nH]c1C(=O)N1CCN(c2ccccc2)CC1)N1CCN(c2ccccc2)CC1 | active: 3.55 µM |  |
| CCCCNC(=O)N(O)C1N(/N=C/c2ccccc2F)C(=S)SC1(C)C (stereo not drawn) | inconclusive [inhibitor, partial curve] |  |
| Cc1oc(S(=O)(=O)N(C)C)cc1C(=O)Nc1ccc(Cl)cc1 | inconclusive [inhibitor, single point] |  |
| COc1cc(-c2csc(NC3CCCCC3)n2)cc(OC)c1OC | inconclusive [inhibitor, partial curve] |  |
| Cc1sc2nc3c(C(=O)N4CCCC4)cc(C(=O)c4ccccc4O)cn3c(=O)c2c1C | inconclusive [inhibitor, single point] |  |
| Cn1c(N)c(C(=O)COC(=O)c2cncc(Br)c2)c(=O)n(C)c1=O | inconclusive [inhibitor, single point] |  |
| COc1ccccc1NC(=O)Nc1ccc(C)cn1 | inconclusive [inhibitor, single point] |  |
| Cc1cc(C)c(C(=O)OCc2csc(CC(=O)Nc3ccccc3C)n2)c(C)c1 | inconclusive [inhibitor, single point] |  |

| SMILES | Potency | activity change, negative = inhibition |
| --- | --- | --- |
| CC[C@]12c3[nH]c4cc(CCC(=O)N(C)C)ccc4c3CCN1C(=O)[C@@H](CC(=O)NCc1ccc(OC)c(OC)c1)C[C@@H]2C(=O)N1CCN(C(=O)c2ccco2)CC1 | inconclusive [inhibitor, single point] |  |
| CS(=O)(=O)Nc1cccc(C2=NN(S(=O)(=O)c3ccc(F)cc3)C(c3cccs3)C2)c1 (stereo not drawn) | inconclusive [inhibitor, single point] |  |
| CCCC(=O)Nc1nc(C)c(-c2csc(Nc3ccc(Cl)cc3)n2)s1 | inactive |  |
| CCOc1ccccc1NC(=O)CCc1ccc(C)o1 | inconclusive [inhibitor, single point] |  |
| N#CC(CCN1CCOCC1)(c1ccccc1)c1ccccc1 | inconclusive [inhibitor, single point] |  |
| Cc1ccccc1C(=O)NNC(=O)C1CCN(C(=O)Nc2ccccc2)CC1 | inconclusive [inhibitor, partial curve] |  |
| Cc1cccc(-c2noc(CCCC(=O)Nc3cccnc3)n2)c1 | inconclusive [inhibitor, full curve, poor fit] |  |
| O=C(Nc1c(Cl)ccc2nsnc12)c1ccc([N+](=O)[O-])o1 | inconclusive [inhibitor, single point] |  |
| Cc1ccc(C)c(NS(=O)(=O)c2cc(C(=O)NCc3ccncc3)ccc2C)c1 | inconclusive [inhibitor, single point] |  |
| Cc1ccc(Cn2ccc(NC(=O)c3noc4c3CCCCC4)n2)cc1 | inconclusive [inhibitor, full curve, poor fit] |  |
| CN1CCN(C(=O)Nc2ccccc2CC[N+](=O)[O-])CC1 | inactive |  |
| CCOC(=O)C1(Cc2cccc(F)c2)CCN(CC2CC2)CC1 | inactive |  |
| CCN(c1ccccc1)S(=O)(=O)c1ccc(C(=O)Nc2ncccc2C)cc1 | inconclusive [inhibitor, single point] |  |
| O=C(Cc1cccs1)Nc1nnc(COc2ccccc2)s1 | inconclusive [inhibitor, full curve] |  |
| CC(C)CN(C(=O)CCCOc1ccc(Cl)cc1Cl)c1c(N)n(Cc2ccccc2)c(=O)[nH]c1=O | inconclusive [inhibitor, full curve] |  |
| CCOc1ccc(S(=O)(=O)NCc2csc(C)n2)cc1 | inconclusive [inhibitor, partial curve, poor fit] |  |
| Cc1ccccc1NC(=O)CNc1ccc(Cl)c(C(F)(F)F)c1 | inactive |  |
| N=c1n(CCN2CCCCC2)c2ccccc2n1CC(=O)c1ccc(Cl)c(Cl)c1 |  | inconclusive: -76.8% [inhibitor] |
| COc1ccc(N2CCN(CC(=O)N3CCC(C)CC3)CC2)cc1 | inactive |  |
| COc1ccccc1N1CCN(C(=O)c2ccc(CN3CCc4ccccc4C3)cc2)CC1 | inconclusive [inhibitor, partial curve] |  |
| COC(=O)c1c(NC(=O)COC(=O)c2ccc(NC(=O)CC#N)cc2)sc2c1CCCCC2 | inconclusive [inhibitor, partial curve] |  |
| O=S1(=O)CCOC[C@H](Cc2ccccc2)N1Cc1ccccc1Br | inactive |  |
| CCOC(=O)c1c(C)[nH]c(C(=O)CN(C)CC(=O)Nc2ccccc2C(F)(F)F)c1C | inconclusive [inhibitor, full curve, poor fit] |  |

| SMILES | Potency | activity change, negative = inhibition |
| --- | --- | --- |
| O=c1c2ccccc2nc2sc3ccccc3n12 | inconclusive [inhibitor, single point] |  |
| CCOc1cccc(-c2c(C(=O)N/N=C/c3ccc(Br)cc3)nnn2-c2nonc2N)c1 | inconclusive [inhibitor, single point] |  |
| CC(C)(C)C(=O)COC(=O)c1c2c(nc3ccccc13)CCC2 | inconclusive [inhibitor, single point] |  |
| O=C(Nc1ccc2nc(-c3cccnc3)[nH]c2c1)C1CCCCC1 | inconclusive [inhibitor, partial curve] |  |
| O=C(CSc1nnc(-c2cccs2)n1Cc1ccccc1)N1CCc2ccccc2C1 | inconclusive [inhibitor, partial curve] |  |
| CN(CCc1ccccn1)C(=O)c1ccc(OC2CCN(CCc3ccccc3)CC2)cc1 | inconclusive [inhibitor, single point] |  |
| Cc1cc(C(=O)Nc2ccccc2N2CCOCC2)c2ccccc2n1 | inconclusive [inhibitor, partial curve] |  |
| COc1ccc(NC(=O)N2CCN(c3ccc([N+](=O)[O-])cc3)CC2)cc1OC | active: 10 µM |  |
| COC(=O)c1sccc1NC(=O)c1ccc(C)o1 | inconclusive [inhibitor, single point] |  |
| N=c1c(C(=O)NCC2CCCO2)cc2c(=O)n3ccccc3nc2n1Cc1ccco1 (stereo not drawn) | inconclusive [inhibitor, partial curve] |  |
| CCOC(=O)c1cc2c(C)n(-c3ccc(OCC)cc3)c(C)c2cc(C(=O)OCC)c1=O | inconclusive [inhibitor, full curve] |  |
| CCn1c2ccccc2c2cc(N=C3SC(CC(=O)Nc4ccccc4OC)C(=O)N3CCOC)ccc21 (stereo not drawn) | inactive |  |
| CSc1ccc(N=Nc2c(C)[nH]n(C)c2=O)cc1 |  | inconclusive: -33.3% [inhibitor] |
| O=C1NC2C(=CC(O)C(O)C2O)c2cc3c(cc21)OCO3 (stereo not drawn) | active: 0.562 µM |  |
| CC(C)Oc1ccc(S(=O)(=O)N2CCOCC2)cc1NC(=O)C1COc2ccccc2O1 (stereo not drawn) | inconclusive [inhibitor, partial curve] |  |
| CCOc1ccc(CCNC(=O)c2ccc(Cl)c(S(=O)(=O)N3CCOCC3)c2)cc1OCC | inconclusive [inhibitor, partial curve] |  |
| CC(=O)NC(=O)c1ccc(-c2ccc(Cl)cc2)o1 | inactive |  |
| COC1C(O)C(C)OC(OC2CCC3(C)C(CCC4C3C(O)CC3(C)C(C5=CC(=O)OC5)CCC43O)C2)C1O (stereo not drawn) | active: 1.58 µM |  |
| COCC(=O)Nc1sc2c(c1C(=O)OC)CCC(C)C2 (stereo not drawn) | active: 7.08 µM |  |
| COc1cc(OC)c(NC(=O)C(=O)CC(=O)c2ccc(C)cc2C)cc1Cl | active: 3.55 µM |  |
| O=C(CN1C(=O)NC2(CCCC2)C1=O)NNC(=O)c1ccc(Cl)cc1 | inactive |  |
| Cc1cccc2sc(NNC(=O)c3ccc(S(=O)(=O)N4CCCC(C)C4)cc3)nc12 (stereo not drawn) | active: 2.82 µM |  |

— PubChem BioAssay AID651820 (National Center for Advancing Translational Sciences (NCATS), 2012)
